# Laboratory results from PubChem BioAssay AID463173 (ICCB-Longwood Screening Facility, Harvard Medical School, 2010).
# Hit rate of the full screen: of about 52,000 compounds, about 4,300 (8.3%) were called active. Cut-off read from the data, not from the text of the source: active = survival mostly below about 52% (no sharp cut-off); inactive = mostly above about 56%. Some of the results follow.
# Test system: DeltatarO mutant
# Experiment: growth inhibition of S. aureus wild type versus tarO mutant, primary screen, teichoic acid synthesis inhibitors, RN4220, OD600 (AID 463173)
# Conditions: OD600, 18 h, active compounds read low, screened at 18.75 µg/mL (by protocol)
row,SMILES,survival
1,COc1cccc(NS(=O)(=O)c2ccc3c(c2)N(C)C(=O)CC(=O)N3C)c1,inactive: 72%
2,COc1ccc(C)cc1NC(=O)c1cn(C)c(=O)c2cc(OC)c(OC)cc12,inactive: 72%
3,C=CCNC(=S)N1CCN(C(=S)NCC=C)CC1,inactive: 71%
4,O=C(Cn1c(-c2ccccc2)noc1=O)Nc1ccc(N2CCCCCC2)cc1,inactive: 88%
5,Cc1ccc(Cl)cc1N1CCN(S(=O)(=O)c2cc(Br)cc3c2N(C(=O)C2CC2)CC3)CC1,inactive: 70%
6,COc1ccc(-c2nn(-c3ccccc3)cc2C2NC(=O)NC(C)=C2C(=O)OC(C)C)cc1Cl (stereo not drawn),inactive: 106%
7,CC(C)(C)OC(=O)N1CCC(c2c(C(=O)N3CCCCC3)cnn2-c2ccccc2Cl)CC1,inactive: 74%
8,Cn1c(=O)oc2cc(S(=O)(=O)CCC(=O)NCCc3ccc(Cl)cc3)ccc21,inactive: 78%
9,COc1ccc(NCc2cc3cc4c(cc3n(CC(=O)Nc3ccc(C)c(C)c3)c2=O)OCO4)cc1,inactive: 73%
10,COc1ccccc1OCc1nc(C#N)c(NCc2ccc(C)cc2)o1,inactive: 83%
11,CCn1c(Cc2ccccc2)nnc1SCC(=O)N(C)C1CCCCC1,inactive: 84%
12,Cn1c(=O)c2sccc2n2c(CCCC(=O)NC3CCCCC3)nnc12,inactive: 77%
13,Cc1ccc(-n2nc(C)c3c(C)cc(=O)n(CC(=O)NC(C)c4ccccc4)c32)cc1 (stereo not drawn),inactive: 100%
14,COc1ccc(S(=O)(=O)N(CC(=O)Nc2cc(Cl)ccc2C)Cc2ccccc2)cc1OC,inactive: 73%
15,CCOc1ccc(S(=O)(=O)Nc2cc3c(C(=O)OC)c(COC)oc3c3ccccc23)cc1,inactive: 61%
16,CCN1CCN(c2ccc(N=Cc3cccc(C)c3O)cc2)CC1,inactive: 97%
17,CCOc1cc(-c2ccc(OC(=O)c3ccc(OC)cc3)c(OC)c2)cc(=O)c2c(C)oc(C)c12,active: 41%
18,CCOC(=O)CC(NC(=O)CCc1c(C)nc2c(c1C)c(=O)n(C)c(=O)n2C)c1ccc(OCC)c(OC)c1 (stereo not drawn),inactive: 105%
19,CC(=O)Nc1ccc(NC(=O)C(Cc2ccccc2)NS(=O)(=O)c2ccc3c(c2)oc(=O)n3C)cc1 (stereo not drawn),inactive: 90%
20,CC(C)c1ccc(NS(=O)(=O)c2ccc3[nH]cc(C(=O)NCCc4ccccc4)c(=O)c3c2)cc1,inactive: 73%
21,CCCCN(CC)CCNC(=O)C1CCCN(c2ncnc3onc(C)c23)C1 (stereo not drawn),inactive: 85%
22,COc1cc(Cl)c(NS(=O)(=O)c2cc(-c3cc(C)no3)ccc2OC)c(OC)c1,inactive: 80%
23,CCOc1ccccc1NC(=O)C1CCN(S(=O)(=O)c2ccc3c(c2)CCCN3C(C)=O)CC1,inactive: 75%
